Experimental data reported in paper PMC4336329 (PLoS ONE, 2015).
About 14,000 (4.5%) of roughly 310,000 compounds showed an effect of 50% or more. The effect is printed as a negative number. The list shows a part of the results.

Target: human ether-à-go-go-related gene (hERG) potassium channel (human, UniProt Q12809)
Assay: primary screen, population patch clamp on CHO cells stably expressing hERG
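Note: peak tail current of the secondary pulse compared with the same well before compound.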

human ether-à-go-go-related gene (hERG) potassium channel, sequence (Q12809 whole entry, looked up): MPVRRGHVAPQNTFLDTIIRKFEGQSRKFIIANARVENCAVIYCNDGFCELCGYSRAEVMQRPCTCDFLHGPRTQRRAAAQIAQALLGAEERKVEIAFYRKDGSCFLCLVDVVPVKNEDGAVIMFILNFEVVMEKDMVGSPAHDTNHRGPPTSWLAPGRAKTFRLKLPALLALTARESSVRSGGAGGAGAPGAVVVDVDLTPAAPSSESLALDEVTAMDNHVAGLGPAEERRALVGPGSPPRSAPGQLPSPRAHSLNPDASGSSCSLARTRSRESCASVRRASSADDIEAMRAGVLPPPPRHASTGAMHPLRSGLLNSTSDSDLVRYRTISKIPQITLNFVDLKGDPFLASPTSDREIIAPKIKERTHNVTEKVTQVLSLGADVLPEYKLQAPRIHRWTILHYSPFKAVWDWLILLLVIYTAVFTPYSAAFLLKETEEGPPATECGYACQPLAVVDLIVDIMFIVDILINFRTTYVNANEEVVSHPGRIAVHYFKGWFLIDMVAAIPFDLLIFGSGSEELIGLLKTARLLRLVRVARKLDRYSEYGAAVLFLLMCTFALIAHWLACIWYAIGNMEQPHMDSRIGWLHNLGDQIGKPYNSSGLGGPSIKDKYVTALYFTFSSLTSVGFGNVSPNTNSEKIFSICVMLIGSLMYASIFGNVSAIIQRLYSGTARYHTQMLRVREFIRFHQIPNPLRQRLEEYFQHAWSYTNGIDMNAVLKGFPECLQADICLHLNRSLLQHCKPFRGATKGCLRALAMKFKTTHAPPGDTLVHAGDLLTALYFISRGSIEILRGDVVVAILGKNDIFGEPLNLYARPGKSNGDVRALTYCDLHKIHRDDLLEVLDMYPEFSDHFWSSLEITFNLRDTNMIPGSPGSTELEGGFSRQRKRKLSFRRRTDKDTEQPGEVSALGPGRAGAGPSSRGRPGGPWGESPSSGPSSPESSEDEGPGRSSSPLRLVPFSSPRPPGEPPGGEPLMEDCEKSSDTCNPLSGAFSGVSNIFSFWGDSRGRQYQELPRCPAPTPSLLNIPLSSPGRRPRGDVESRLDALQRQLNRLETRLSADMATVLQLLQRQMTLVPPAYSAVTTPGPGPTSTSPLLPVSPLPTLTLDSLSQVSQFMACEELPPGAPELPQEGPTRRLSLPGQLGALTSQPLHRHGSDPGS

Compound | hERG current change (%, negative = inhibition) at 10uM [%]
O=C(c1cccc(Cl)c1)N1CCN(S(=O)(=O)c2ccc(Cl)s2)CC1 | -37.4
COc1ccc(C)cc1NC(=O)CSc1nnc(CC(=O)Nc2ccccc2F)n1C | 3.63
COc1ccc(C2CC(=O)C=C(NNS(=O)(=O)c3ccc(C)cc3)C2)cc1 (stereo not drawn) | -6.77
CC1(C)CC(C2N3CC4(C)CN2CC(C)(C3)C4=O)CCO1 (stereo not drawn) | -1.88
O=C(N/C(=C/c1cccc([N+](=O)[O-])c1)C(=O)N1CCCCCC1)c1ccco1 | -28.2
CCn1ccnc1CN1CCN(CC(C)C)C(CCO)C1 (stereo not drawn) | 25.7
CC1CCCCN1S(=O)(=O)c1ccc(-n2cnnn2)cc1 (stereo not drawn) | -50.1
CC(C)(C)C(=O)CSc1ncnc2c1cnn2Cc1ccccc1 | -5.74
O=C(C1=NN[C@@H]2C(=O)N(c3cccc(C(F)(F)F)c3)C(=O)[C@H]12)c1cnccn1 | 19
COCCNC(=S)N1CCN(C)CC1.O=C(O)C(=O)O | 5.92
CCOC(=O)CNC(=O)c1ccc(OCC(F)(F)F)cc1 | 9.36
CN(C1CCCCC1)S(=O)(=O)c1cccc2nsnc12 | 8.05
COC(=O)Cn1c(C)nc([N+](=O)[O-])c1Br | -9.28
O=C(Nc1cccc([N+](=O)[O-])c1)C1C2CC/C=C\CCC21 (stereo not drawn) | 16.1
CC1CCCCN1CCNC(=O)c1ccc2c(c1)N(Cc1cccc(Cl)c1)C(=O)c1ccccc1S2=O (stereo not drawn) | -32.1
CC(=O)c1cccc(NC(=O)CN(C)Cc2ccc(OC(F)F)cc2)c1 | -55
CCOC(=O)c1nnn(CC(=O)Nc2cc(Cl)ccc2C)c1C(=O)OCC | -1.89
N#CCOc1ccccc1/C=N/n1nnnc1N | 17.4
CCCCc1ccc(S(=O)(=O)Nc2nnc(C)s2)cc1 | 24.2
O=C(N/N=C/c1cc(Cl)ccc1O)c1ccccc1Br | 5.1
O=C(C1CCCO1)N1CCN(Cc2nc3ccccc3c(=O)[nH]2)CC1 (stereo not drawn) | 11.9
COCCNC(=O)c1ccc(NS(C)(=O)=O)cc1 | 17.2
Cc1[nH]n(-c2ccccc2)c(=O)c1Sc1ccc(Cl)cc1 | 12

Compound | hERG current change (%, negative = inhibition) at 10uM [%]
O=C(/C=C/c1cccc([N+](=O)[O-])c1)NCCSc1ccccc1 | -43.7
N#CCC(=N)N1CCN(c2ccc(F)cc2)CC1 | -42
COc1ccc(C(=O)N2CCN(CCc3ccccn3)CC2)cc1.Cl | -77.3
COc1ccc(CCNC(=O)c2nc3ncccn3n2)cc1OC | 18.6
CC(=O)c1sc(-c2ccccc2)nc1C | -0.327
COc1cc(NC(=O)CSc2ccc(-c3ccccn3)nn2)cc(OC)c1 | 9.65
Cc1ccn2cc(-c3cccc(NC(=O)CCC(=O)O)c3)nc2c1 | 20.9
Cc1onc(-c2ccccc2Cl)c1C(=O)N1CCCC1 | 8.33
COc1ccc(NC(=O)c2cc(C)no2)cc1 | 21.3
COc1cc(COc2ccc3c(C)c(CC(=O)O)c(=O)oc3c2C)cc(OC)c1OC | 17.6
O=C(NCCCO)c1nnc(Cc2c(F)cccc2Cl)o1 | 7.19
CC(=O)c1ccc(-n2ccc(=O)cc2)cc1 | 8.1
CC(C)OC(=O)CSc1nnc(-c2ccco2)n1N | -5.09
Cc1ccc2nsnc2c1NC(=O)c1sc2ccccc2c1Cl | 18.1
Cc1cc(OCC(=O)NC(C)c2ccccc2)ccc1[N+](=O)[O-] (stereo not drawn) | -13.2
CC(C)c1nc(CNC(=O)C2CCC(=O)N(Cc3ccc(Cl)cc3)C2)no1 (stereo not drawn) | 3.8
CCOC(=O)CC(=O)CSc1nc2c(c(-c3cccs3)c1C#N)CCC2 | -16.9
CCOc1cc(C2NC(=O)NC(O)(C(F)(F)F)C2C(=O)c2ccc(OC)cc2)ccc1O (stereo not drawn) | 4.02
COc1ccc(NS(=O)(=O)c2ccc(NC(=S)NC(=O)/C=C/c3ccc(C)cc3)cc2)nn1 | 15.2
CCOC(=O)CN1C(=O)CC(c2ccccc2)C1=O (stereo not drawn) | 12.6
Cc1cccc(-c2nc3ccccc3c(=O)n2NC(=O)c2cccs2)c1 | 1.65
COc1ccc(Cl)cc1S(=O)(=O)N1CCN(C(=O)COc2ccccc2)CC1 | -19.3
O=C(/C=C/c1ccc([N+](=O)[O-])cc1)Nc1cccnc1 | -62.7

Compound | hERG current change (%, negative = inhibition) at 10uM [%]
N#C/C(=C\c1ccccc1OCC(=O)O)c1nc2ccccc2[nH]1 | 8.46
O=C(c1ccc2c(=O)n(Cc3ccco3)c(=S)[nH]c2c1)N1CCN(c2ccccc2)CC1 | 12.2
CCCCCC/C(=N\NS(C)(=O)=O)c1ccccc1 | 2.07
CCOc1cccc(OCCCCn2cnc3ccccc3c2=O)c1 | 5.62
Cc1cc(SCC(=O)Nc2ncc(Cl)cc2Cl)nc2ccccc12 | 10.5
COc1ccc(CN(C(=O)c2oc3ccccc3c2C)C2CCS(=O)(=O)C2)cc1OC (stereo not drawn) | -24.6
C=CCn1c(Cc2ccc(OC)cc2)nnc1SCC(=O)c1cccc([N+](=O)[O-])c1 | -14.1
COCCCn1c(C)nnc1SCC(=O)Nc1ccc(C(C)=O)cc1 | 13.1
C=CCn1c(-c2ccc(N)cc2)nc2ccccc21 | 1.02
O=C(NCCN1Cc2ccccc2C1=O)c1cccs1 | 9.5
O=C(NC(=S)Nc1c(F)cc(F)cc1Br)c1ccc2c(c1)OCCO2 | 22.5
O=C(NN=C1C2CC3CC(C2)CC1C3)c1ccncc1 | 1.13
CCCCn1c(N)c(N(CC)C(=O)c2cc(S(=O)(=O)N3CCCCCC3)ccc2OC)c(=O)[nH]c1=O | 4.53
CC1CCN(c2nc(N(C)c3ccccc3)nc(N)c2[N+](=O)[O-])CC1 | 7.42
CCCCc1ccc(NC(=O)CC(C)=O)cc1 | -20.4
O=c1c2ccccc2nc(Cc2cccc([N+](=O)[O-])c2)n1-c1ccc(O)cc1 | -35.5
Cc1ccccc1NNC(=O)C(=O)NNc1ccccc1C | 11.3
COc1ccc(S(=O)(=O)N(C)CC(=O)Nc2ccc(F)cc2)cc1 | 3.38
COC(=O)C1=C(c2ccc(OC)c(OC)c2)C[C@@H]2CC[C@H]1N2C(=O)N1CCCC1 | 15
Cc1c2cn[nH]c(=O)c2c(C)n1-c1ccccc1 | 4.51
COCc1c(C(=O)N/N=C(/C)c2ccc(OCc3ccccc3)cc2)nnn1-c1nonc1N | 9.35
COc1cc(C(c2c(C)[nH][nH]c2=O)c2c(C)[nH][nH]c2=O)cc(Cl)c1O | 17.3
CNC(=O)Nc1ccccc1C(=O)NCc1ccccc1 | -2.12

Compound | hERG current change (%, negative = inhibition) at 10uM [%]
O=C(Nc1cnc2sc3c(n2c1=O)CCCC3)c1ccc(F)cc1 | -10.6
COc1ccc(S(=O)(=O)Nc2cc(C)nn2-c2ccccc2)cc1 | 8.58
Cc1cc(/C=C2\C(=O)NC(=S)N(C)C2=O)c(C)n1C1CCCCC1 | 31.2
O=C(CN1CCCc2ccccc21)Nc1ccccc1[N+](=O)[O-] | 15.4
CC(C)(C)C1CCc2c(C(=O)N/N=C/c3cccs3)csc2C1 (stereo not drawn) | 6.11
CCC(C)(C)NC(=O)C(c1ccc(C)cc1)N(CC1CCCO1)C(=O)c1csnn1 (stereo not drawn) | 10.5
O=C(CNC(=O)c1ccc(Br)cc1)OCC(=O)c1ccccc1 | 10.2
CC1CCN(CCOCCSc2ccc(Cl)cc2)CC1.O=C(O)C(=O)O | -72.1
CCn1nc(C(=O)N2CCN(Cc3ccc4c(c3)OCO4)CC2)c2ccccc2c1=O | -52.1
CCCN(Cc1nnc(-c2ccccc2Cl)o1)C(=O)COc1ccc(Cl)cc1 | -60.5
N#CC(C#N)=Cc1ccc(-c2ccccc2)o1 | -9.37
O=C1C(c2ccc(F)cc2)N(CC2COc3ccccc3O2)C(=O)CN1C1CCCCC1 (stereo not drawn) | -24.6
c1cncc(-c2nc(N3CCCCCC3)c3ccccc3n2)c1 | -92.9
N#C/C(=C\c1ccc(OCC(N)=O)cc1)c1ccccc1 | -1.83
O=C(CCCC(=O)N(CC(=O)NC1CCCC1)Cc1ccc(F)cc1)Nc1ccccn1 | -11.6
COc1cc(C2SCC(=O)N2Cc2ccccc2)cc(OC)c1OC (stereo not drawn) | 1.58
COc1cc(NC(=O)Cc2ccc(Cl)cc2)ccc1NC(=O)c1ccco1 | -3.08
CCOc1ccc(NC(=O)COc2ccc(C(=O)NC3CCCc4ccccc43)cc2OC)cc1 (stereo not drawn) | -7.08
Cc1cc(Cl)c2oc(C(=O)N3CCN(c4ccncc4)CC3)c(C)c2c1 | -75.9
CCC(O)(C(=O)Nc1ccccc1C(F)(F)F)c1ccccc1OC (stereo not drawn) | 10.8
CC(=NC1CC1)C1=C(O)c2ccccc2C1=O | 24
